# Data: the supplement of paper PMC8728848
# The other results are listed elsewhere or left out.
# Experiments:
# Assay in all cases: glycan array binding signal (z-score within array); higher = stronger binding
# Conditions in all cases: glycan notation: IUPAC condensed, linker removed
# [1] = molecular target: GlcNAc(b1-3)Gal(b1-3)GalNAc
# Outline: (§1)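 The binding signal is a Z-score computed within each array. Data were drawn from 3228 arrays in the Consortium for Functional Glycomics database, restricted to those with a known protein sequence. Scores were averaged over arrays of the same protein sequence at different concentrations or buffers, and over linkers, and negative values can be taken as non-binding.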
# GlcNAc(b1-3)Gal(b1-4)Glc = molecular target: GlcNAc(b1-3)Gal(b1-4)Glc
# Outline: as §1
# [2] = molecular target: GlcNAc(b1-3)Gal(b1-4)GlcNAc
# Outline: as §1
# [3] = molecular target: GlcNAc(b1-3)Gal(b1-4)GlcNAc(b1-2)Man(a1-3)[GlcNAc(b1-3)Gal(b1-4)GlcNAc(b1-2)Man(a1-6)]Man(b1-4)GlcNAc(b1-4)GlcNAc
# Outline: as §1
# [4] = molecular target: GlcNAc(b1-3)Gal(b1-4)GlcNAc(b1-2)Man(a1-3)[GlcNAc(b1-3)Gal(b1-4)GlcNAc(b1-2)Man(a1-6)]Man(b1-4)GlcNAc(b1-4)[Fuc(a1-6)]GlcNAc
# Outline: as §1
# [5] = molecular target: GlcNAc(b1-3)Gal(b1-4)GlcNAc(b1-2)[GlcNAc(b1-3)Gal(b1-4)GlcNAc(b1-6)]Man(a1-6)[GlcNAc(b1-3)Gal(b1-4)GlcNAc(b1-2)Man(a1-3)]Man(b1-4)GlcNAc(b1-4)GlcNAc
# Outline: as §1
# [6] = molecular target: GlcNAc(b1-3)Gal(b1-4)GlcNAc(b1-3)Gal(b1-4)GlcNAc
# Outline: as §1
# [7] = molecular target: GlcNAc(b1-3)Gal(b1-4)GlcNAc(b1-3)Gal(b1-4)GlcNAc(b1-2)Man(a1-3)[GlcNAc(b1-3)Gal(b1-4)GlcNAc(b1-3)Gal(b1-4)GlcNAc(b1-2)Man(a1-6)]Man(b1-4)GlcNAc(b1-4)GlcNAc
# Outline: as §1
# [8] = molecular target: GlcNAc(b1-3)Gal(b1-4)GlcNAc(b1-3)Gal(b1-4)GlcNAc(b1-2)Man(a1-3)[GlcNAc(b1-3)Gal(b1-4)GlcNAc(b1-3)Gal(b1-4)GlcNAc(b1-2)Man(a1-6)]Man(b1-4)GlcNAc(b1-4)[Fuc(a1-6)]GlcNAc
# Outline: as §1
# [9] = molecular target: GlcNAc(b1-3)Gal(b1-4)GlcNAc(b1-3)Gal(b1-4)GlcNAc(b1-2)[GlcNAc(b1-3)Gal(b1-4)GlcNAc(b1-3)Gal(b1-4)GlcNAc(b1-6)]Man(a1-6)[GlcNAc(b1-3)Gal(b1-4)GlcNAc(b1-3)Gal(b1-4)GlcNAc(b1-2)Man(a1-3)]Man(b1-4)GlcNAc(b1-4)[Fuc(a1-6)]GlcNAc
# Outline: as §1
# [10] = molecular target: GlcNAc(b1-3)Gal(b1-4)GlcNAc(b1-3)Gal(b1-4)GlcNAc(b1-3)Gal(b1-4)GlcNAc(b1-2)Man(a1-3)[GlcNAc(b1-3)Gal(b1-4)GlcNAc(b1-3)Gal(b1-4)GlcNAc(b1-3)Gal(b1-4)GlcNAc(b1-2)Man(a1-6)]Man(b1-4)GlcNAc(b1-4)GlcNAc
# Outline: as §1
# [11] = molecular target: GlcNAc(b1-3)Gal(b1-4)GlcNAc(b1-3)Gal(b1-4)GlcNAc(b1-3)Gal(b1-4)GlcNAc(b1-2)Man(a1-3)[GlcNAc(b1-3)Gal(b1-4)GlcNAc(b1-3)Gal(b1-4)GlcNAc(b1-3)Gal(b1-4)GlcNAc(b1-2)Man(a1-6)]Man(b1-4)GlcNAc(b1-4)[Fuc(a1-6)]GlcNAc
# Outline: as §1
# [12] = molecular target: GlcNAc(b1-3)Gal(b1-4)GlcNAc(b1-3)Gal(b1-4)GlcNAc(b1-3)Gal(b1-4)GlcNAc(b1-2)[GlcNAc(b1-3)Gal(b1-4)GlcNAc(b1-3)Gal(b1-4)GlcNAc(b1-3)Gal(b1-4)GlcNAc(b1-6)]Man(a1-6)[GlcNAc(b1-3)Gal(b1-4)GlcNAc(b1-3)Gal(b1-4)GlcNAc(b1-3)Gal(b1-4)GlcNAc(b1-2)Man(a1-3)]Man(b1-4)GlcNAc(b1-4)[Fuc(a1-6)]GlcNAc
# Outline: as §1
# [13] = molecular target: GlcNAc(b1-3)Gal(b1-4)GlcNAc(b1-3)Gal(b1-4)GlcNAc(b1-3)Gal(b1-4)GlcNAc(b1-3)Gal(b1-4)GlcNAc(b1-2)Man(a1-3)[GlcNAc(b1-3)Gal(b1-4)GlcNAc(b1-3)Gal(b1-4)GlcNAc(b1-3)Gal(b1-4)GlcNAc(b1-3)Gal(b1-4)GlcNAc(b1-2)Man(a1-6)]Man(b1-4)GlcNAc(b1-4)GlcNAc
# Outline: as §1
# [14] = molecular target: GlcNAc(b1-3)Gal(b1-4)GlcNAc(b1-3)Gal(b1-4)GlcNAc(b1-3)Gal(b1-4)GlcNAc(b1-3)Gal(b1-4)GlcNAc(b1-2)Man(a1-3)[GlcNAc(b1-3)Gal(b1-4)GlcNAc(b1-3)Gal(b1-4)GlcNAc(b1-3)Gal(b1-4)GlcNAc(b1-3)Gal(b1-4)GlcNAc(b1-2)Man(a1-6)]Man(b1-4)GlcNAc(b1-4)[Fuc(a1-6)]GlcNAc
# Outline: as §1
# [15] = molecular target: GlcNAc(b1-3)Gal(b1-4)GlcNAc(b1-3)Gal(b1-4)GlcNAc(b1-3)Gal(b1-4)GlcNAc(b1-3)Gal(b1-4)GlcNAc(b1-2)[GlcNAc(b1-3)Gal(b1-4)GlcNAc(b1-3)Gal(b1-4)GlcNAc(b1-3)Gal(b1-4)GlcNAc(b1-3)Gal(b1-4)GlcNAc(b1-6)]Man(a1-6)[GlcNAc(b1-3)Gal(b1-4)GlcNAc(b1-3)Gal(b1-4)GlcNAc(b1-3)Gal(b1-4)GlcNAc(b1-3)Gal(b1-4)GlcNAc(b1-2)Man(a1-3)]Man(b1-4)GlcNAc(b1-4)[Fuc(a1-6)]GlcNAc
# Outline: as §1
# [16] = molecular target: GlcNAc(b1-3)Gal(b1-4)GlcNAc(b1-3)Gal(b1-4)GlcNAc(b1-3)GalNAc
# Outline: as §1
# [17] = molecular target: GlcNAc(b1-3)Gal(b1-4)GlcNAc(b1-3)GalNAc
# Outline: as §1
# [18] = molecular target: GlcNAc(b1-3)Gal(b1-4)GlcNAc(b1-3)[GlcNAc(b1-3)Gal(b1-4)GlcNAc(b1-3)]GalNAc
# Outline: as §1
# [19] = molecular target: GlcNAc(b1-3)Gal(b1-4)GlcNAc(b1-6)[Gal(b1-3)]GalNAc
# Outline: as §1
# [20] = molecular target: GlcNAc(b1-3)Gal(b1-4)GlcNAc(b1-6)[GlcNAc(b1-3)Gal(b1-3)]GalNAc
# Outline: as §1
# [21] = molecular target: GlcNAc(b1-3)Gal(b1-4)GlcNAc(b1-6)[GlcNAc(b1-3)]Gal(b1-4)GlcNAc
# Outline: as §1
# GlcNAc(b1-3)GalNAc = molecular target: GlcNAc(b1-3)GalNAc
# Outline: as §1
# GlcNAc(b1-3)Man = molecular target: GlcNAc(b1-3)Man
# Outline: as §1
# [22] = molecular target: GlcNAc(b1-3)[GlcNAc(b1-4)][GlcNAc(b1-6)]GlcNAc
# Outline: as §1
# [23] = molecular target: GlcNAc(b1-3)[GlcNAc(b1-6)]Gal(b1-4)GlcNAc
# Outline: as §1
# [24] = molecular target: GlcNAc(b1-3)[GlcNAc(b1-6)]GalNAc
# Outline: as §1
# [25] = molecular target: GlcNAc(b1-4)Gal(b1-4)GlcNAc
# Outline: as §1
# GlcNAc(b1-4)GlcNAc = molecular target: GlcNAc(b1-4)GlcNAc
# Outline: as §1
# [26] = molecular target: GlcNAc(b1-4)GlcNAc(b1-4)GlcNAc
# Outline: as §1
# [27] = molecular target: GlcNAc(b1-4)GlcNAc(b1-4)GlcNAc(b1-4)GlcNAc(b1-4)GlcNAc
# Outline: as §1
# [28] = molecular target: GlcNAc(b1-4)GlcNAc(b1-4)GlcNAc(b1-4)GlcNAc(b1-4)GlcNAc(b1-4)GlcNAc
# Outline: as §1
# [29] = molecular target: GlcNAc(b1-4)[GlcNAc(b1-6)]GalNAc
# Outline: as §1
# [30] = molecular target: GlcNAc(b1-6)Gal(b1-4)GlcNAc
# Outline: as §1
# GlcNAc(b1-6)GalNAc = molecular target: GlcNAc(b1-6)GalNAc
# Outline: as §1
# [31] = molecular target: GlcNAc6S(b1-3)Gal(b1-4)GlcNAc
# Outline: as §1
# Kdn(a2-3)Gal(b1-3)GalNAc = molecular target: Kdn(a2-3)Gal(b1-3)GalNAc
# Outline: as §1
binder,measurement,setting,value
"Arath Fbox (Arabidopsis thaliana), NP_178341.1 (protein) EFTWGRKRRVKSESSPFDSFPEDCISYIISFTNPRDACVAATVSKTFESTVKSDIIWEKFLPADYESLIPPSRVFSSKKELYFSLCNDPVLFDDDKKSVWLEKASGKRCLMLSAMNLSIIWGDNPQYWQWIPIPESRFEKVAKLRDVCWFEIRGRTNTRVLSPRTRYSAYIVFKGVDKCYGFQNVAIEAAVGVVGQEPSRRLICFSEAIRRGRRNVVKPKQREDGWMEIELGEFFNDGGIMDNDEIEMSALETKQLNRKCGLIIQGIEIRPAKILAAAAASFLEQKLISEEDLNSAVDHHHHHH",glycan array binding signal (z-score),[1],-0.548
same,glycan array binding signal (z-score),GlcNAc(b1-3)Gal(b1-4)Glc,-0.396
same,glycan array binding signal (z-score),[2],-0.583
same,glycan array binding signal (z-score),[3],-0.61
same,glycan array binding signal (z-score),[4],-0.348
same,glycan array binding signal (z-score),[5],0.161
same,glycan array binding signal (z-score),[6],-0.619
same,glycan array binding signal (z-score),[7],0.848
same,glycan array binding signal (z-score),[8],-0.597
same,glycan array binding signal (z-score),[9],1.27
same,glycan array binding signal (z-score),[10],-0.547
same,glycan array binding signal (z-score),[11],-0.361
same,glycan array binding signal (z-score),[12],-0.525
same,glycan array binding signal (z-score),[13],1.1
same,glycan array binding signal (z-score),[14],-0.585
same,glycan array binding signal (z-score),[15],-0.47
same,glycan array binding signal (z-score),[16],-0.761
same,glycan array binding signal (z-score),[17],-0.539
same,glycan array binding signal (z-score),[18],-0.051
same,glycan array binding signal (z-score),[19],-0.687
same,glycan array binding signal (z-score),[20],-0.679
same,glycan array binding signal (z-score),[21],-0.747
same,glycan array binding signal (z-score),GlcNAc(b1-3)GalNAc,-0.488
same,glycan array binding signal (z-score),GlcNAc(b1-3)Man,-0.454
same,glycan array binding signal (z-score),[22],-0.066
same,glycan array binding signal (z-score),[23],-0.517
same,glycan array binding signal (z-score),[24],-0.541
same,glycan array binding signal (z-score),[25],-0.483
same,glycan array binding signal (z-score),GlcNAc(b1-4)GlcNAc,-0.69
same,glycan array binding signal (z-score),[26],-0.656
same,glycan array binding signal (z-score),[27],-0.358
same,glycan array binding signal (z-score),[28],-0.601
same,glycan array binding signal (z-score),[29],-0.42
same,glycan array binding signal (z-score),[30],-0.56
same,glycan array binding signal (z-score),GlcNAc(b1-6)GalNAc,-0.149
same,glycan array binding signal (z-score),[31],0.585
same,glycan array binding signal (z-score),Kdn(a2-3)Gal(b1-3)GalNAc,-0.352
